According to PubChem BioAssay AID1454 (National Center for Advancing Translational Sciences (NCATS), 2008):
“And” between values parts separate entries of the source, which are not always exact repeats. Equal values may be shown once. Out of some 130,000 compounds screened, about 550 (0.42%) were called active. Inconclusive means that the source gave no clear call. Such entries were picked first, then a sample of the others. Calls come from the whole dose curve; as a rule, active = well fitted inhibition curve with a large enough effect; inconclusive = small, poorly fitted or top-dose-only effect, or effect the other way; inactive = flat fitted curve, though single readings scatter. Potencies of inconclusive entries are doubtful fits and often do not repeat.

Assay: qHTS Assay for Inhibitors of the ERK Signaling Pathway using a Homogeneous Screening Assay; Stimulation with EGF; note: nearly all actives have a fitted effect of over 55% in size;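 for activity change, negative = inhibition: plate controls were stimulated vehicle wells for no effect and unstimulated vehicle basal for full effect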
Conditions: HEK293-V1b, EGF-stimulated phospho-ERK AlphaScreen; activity change, negative = inhibition: at the top concentration
How it was run: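 Compounds are titrated over HEK293-V1b cells kept overnight in 1% FBS. After 30 min at 37C, EGF (25 nM final) triggers ERK phosphorylation for 5 min, measured by AlphaScreen in lysates.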
Potency is the fitted concentration of half-maximal effect; tags give direction and shape of the fitted curve.

Row | SMILES | Potency | activity change, negative = inhibition
1 | COC(=O)c1ccc(C23CC4(C2)[C@H](CN(C)[C@@H]4c2ccccc2)C3c2ccccc2)cc1 (stereo not given in full) | inconclusive: 25.1 µM [inhibitor, partial curve] and inconclusive: 28.2 µM [inhibitor, partial curve] | 
2 | C#CCOC(=O)Nc1ccc(OCC(F)(F)F)nc1 |  | inactive: -16.2% [at 57.5 µM]
3 | Cc1cccc(-n2ncc3c(NC4CCCCC4)ncnc32)c1 | inconclusive: 22.4 µM [inhibitor, single point] | 
4 | CCc1nc2ccccc2c(C(=O)OCC(=O)Nc2cccc(S(=O)(=O)NC3=NCCCCC3)c2)c1C | inconclusive: 35.5 µM [inhibitor, single point] | 
5 | O=C(NCc1cccs1)c1cc(-c2ccccc2)nc2ccccc12 | inconclusive: 3.98 µM [activator, single point] | 
6 | C=C1C2(C(=O)Nc3ccc(SC(F)F)cc3)CCC(C2)C1(C)C (stereo not given) | inconclusive: 39.8 µM [inhibitor, single point] | 
7 | Cc1ccc(-c2cc(C(=O)N/N=C/C(Br)=C/c3ccccc3)n[nH]2)o1 | inconclusive: 12.6 µM [inhibitor, partial curve] | 
8 | O=C(Nc1ccc2c(c1)OCO2)c1cc(-c2cccnc2)nc2ccccc12 | inconclusive: 35.5 µM [inhibitor, single point] | 
9 | N#Cc1ccccc1OCC(O)CS(=O)(=O)c1ccccc1 (stereo not given) |  | inactive: -5.77%
10 | Nc1ccccc1N=Cc1ccc(-c2cccc(Cl)c2)o1 | inconclusive: 25.1 µM [inhibitor, single point] | 
11 | O=C1COc2ccc(C(=O)COC(=O)c3cc(S(=O)(=O)NCc4ccccc4)ccc3O)cc2N1 | inconclusive: 39.8 µM [inhibitor, single point] | 
12 | CCC1=C2CC[C@H]3C(=O)NC(=O)[C@H]3[C@H]2[C@@]2(C)C(=NCCc3c[nH]c4ccccc34)OC(=O)N2C1=O |  | inactive: 1.34%
13 | COc1ccc(Nc2ccc(OC)cc2)cc1 | inconclusive: 8.91 µM [inhibitor, partial curve] | 
14 | CCOC(=O)c1cc2c(ccn2C)n1Cc1ccc(Cl)cc1 | inconclusive: 17.8 µM [inhibitor, single point] | 
15 | CCCN(Cc1cc2cc(C)ccc2[nH]c1=O)C(=O)c1cccc([N+](=O)[O-])c1 | inconclusive: 39.8 µM [inhibitor, single point] | 
16 | O=C(Nc1ccc(N2CCCCC2)cc1)c1ccc2ccccc2n1 | inconclusive: 31.6 µM [inhibitor, partial curve] | 
17 | NS(=O)(=O)c1ccc(NNC(=O)c2sccc2Cl)cc1 | inconclusive: 12.6 µM [activator, partial curve, poor fit] | 
18 | COc1ccc(C[C@@H]2c3cc(OC)c(OC)cc3CC[N@+]2(C)CCC(=O)OCCCCCOC(=O)CC[N@@+]2(C)CCc3cc(OC)c(OC)cc3[C@H]2Cc2ccc(OC)c(OC)c2)cc1OC |  | inactive: -0.575% [at 25.7 µM]
19 | S=C(Nc1ccccc1)Nc1ccccc1C#Cc1ccccc1 | inconclusive: 7.08 µM [inhibitor, partial curve] | 
20 | COc1cc(N=Nc2c(O)c3ccccc3[nH]c2=O)c(OC)cc1N=Nc1ccccc1 | inconclusive: 12.6 µM [inhibitor, partial curve, poor fit] | 
21 | COC(=O)[C@H](CC(C)C)NC(=O)N1CCC(C)CC1 |  | inactive: 11.8% [at 57.5 µM]
22 | CCN1C(=O)C(CC(=O)Nc2ccc(F)cc2)N(Cc2cccs2)C1=S (stereo not given) | inconclusive: 3.55 µM [activator, full curve, poor fit] | 

Row | SMILES | Potency | activity change, negative = inhibition
23 | COCCN(C(=S)Nc1cc(C)cc(C)c1)C(C)c1cccnc1 (stereo not given) |  | inactive: 7.94%
24 | O=[N+]([O-])c1ccc(O)c(Nc2ncnc3ccccc23)c1 |  | inactive: -15.7%
25 | O=[N+]([O-])c1nn(-c2ccccc2)n(O)c1=NC1CCN(Cc2ccccc2)CC1 | inconclusive: 17.8 µM [inhibitor, partial curve] | 
26 | CN(C)CC(CCC(CN(C)C)C(=O)c1ccccc1)C(=O)c1ccccc1 (stereo not given) | inconclusive: 39.8 µM [inhibitor, single point] | 
27 | O=C(O)/C=C/c1ccc2c(c1)OCCO2 |  | inactive: -8.38% [at 57.5 µM]
28 | COc1ccc(Br)c(C(=O)N2CCN(S(=O)(=O)/C=C/c3ccccc3)CC2)c1 | inconclusive: 39.8 µM [inhibitor, single point] | 
29 | Cc1cc(C)c(C)c(N=Nc2nc3ccccc3n2C)c1C | active: 14.1 µM | 
30 | Cc1ccc(/C=N/Nc2ccc3ccccc3n2)o1 | inconclusive: 14.1 µM [inhibitor, partial curve] | 
31 | COc1cc(OC)cc(C(=O)NNC(=S)Nc2ccc(S(N)(=O)=O)cc2)c1 | inconclusive: 39.8 µM [inhibitor, single point] | 
32 | CCOC(=O)c1ccc(NC(=S)N2CCN(CCNC3=CC(=O)CC(C)(C)C3)CC2)cc1 |  | inactive: 2.39%
33 | Oc1ccc(N=Nc2nccs2)c(O)c1 | inconclusive: 28.2 µM [inhibitor, partial curve] | 
34 | O=C(N/N=C/c1ccc[nH]1)c1cc(-c2ccc(Cl)cc2)nc2ccccc12 | inconclusive: 14.1 µM [inhibitor, partial curve] | 
35 | CCc1cccc(NC(=O)c2ccc3c(=O)n4c(nc3c2)CCCCC4)c1 | inconclusive: 25.1 µM [inhibitor, single point] | 
36 | COc1ccc(-c2coc3c(OC)c(OC)cc(O)c3c2=O)cc1 |  | inactive: 10.3%
37 | O=C(CCNC(=O)c1ccc(Br)o1)NCc1ccccc1Cl | inconclusive: 39.8 µM [inhibitor, single point] | 
38 | COc1ccccc1OCCCOc1c(Cl)cc(C)cc1Cl | inconclusive: 35.5 µM [activator, partial curve] | 
39 | COC(=O)C(NC(=O)CNS(=O)(=O)c1ccc(Br)cc1)c1ccccc1 (stereo not given) |  | inactive: -6.8%
40 | O=C1N(c2ccccc2)c2ccccc2C1(Cc1ccncc1)Cc1ccncc1 | inconclusive: 6.31 µM [inhibitor, single point] | 
41 | Cc1ccc(CNC(=O)[C@H]2C[C@@H]2[C@H](NP(=O)(c2ccccc2)c2ccccc2)c2ccccc2)c(F)c1F |  | inactive: 18.7%
42 | CC(=O)c1c(C)[nH]c(C(=O)OCC(=O)Nc2ccc(Cl)cc2[N+](=O)[O-])c1C | inconclusive: 22.4 µM [inhibitor, single point] | 
43 | COC1C=CO[C@@]2(C)Oc3c(C)c(O)c4c(O)c(c(C=NN5CCN(C)CC5)c(O)c4c3C2=O)NC(=O)/C(C)=C\C=CC(C)C(O)[C@@H](C)C(O)C(C)[C@H](OC(C)=O)C1C (stereo not given in full) | inconclusive: 14.1 µM [inhibitor, partial curve] | 
44 | C(=N\N(Cc1ccccc1)c1ccccc1)/c1cccnc1 | inconclusive: 6.31 µM [inhibitor, single point] | 

Row | SMILES | Potency | activity change, negative = inhibition
45 | COc1ccc(OC)c(NC2=C(Cl)C(=O)N(Cc3ccccc3)C2=O)c1 | inconclusive: 22.4 µM [inhibitor, partial curve, poor fit] | 
46 | COc1ccc(-n2c(=O)c(C)nc3cnc(N(C)C)nc32)cc1 |  | inactive: -1.37%
47 | Cc1ccc2nc(-c3ccc(N)cc3)sc2c1 |  | inactive: -0.816% [at 57.5 µM]
48 | COC(=O)c1cc(=O)n(Cc2ccco2)c(=Nc2ccc(F)cc2)s1 | inconclusive: 11.2 µM [inhibitor, partial curve] | 
49 | O=C(CNc1cccc(C(F)(F)F)c1)N/N=C/c1cccc(Br)c1 | inconclusive: 20 µM [inhibitor, single point] | 
50 | O=[N+]([O-])c1cccc(C(=S)N2CCN(c3ccc(F)cc3)CC2)c1 | inconclusive: 25.1 µM [inhibitor, single point] | 
51 | CCCC(=O)Nc1ccccc1NC(C)=O | inconclusive: 39.8 µM [inhibitor, single point] | 
52 | COc1cc(NC(=O)c2cc(Br)cc(C)c2OC)ccc1NC(=O)C(C)C | inconclusive: 39.8 µM [inhibitor, single point] | 
53 | Cc1ccc(S(=O)(=O)N2c3ccccc3-c3c(ssc3=S)C2(C)C)cc1 | active: 12.6 µM | 
54 | COC(=O)c1cc(=O)n(-c2ccc(F)cc2)c(=Nc2ccc(F)cc2)s1 | inconclusive: 25.1 µM [inhibitor, single point] | 
55 | COc1ccc2c(c1)OCC(Cc1ccc(OC)c(OC(C)=O)c1)C2=O (stereo not given) |  | inactive: 0.876%
56 | COc1ccc(OC)c(S(=O)(=O)N2CCC(C(=O)N(C)Cc3ccccc3)CC2)c1 |  | inactive: -0.471% [at 57.5 µM]
57 | CC(=O)c1ccc(NC(=O)Nc2ccc([N+](=O)[O-])cc2)cc1 | inconclusive: 39.8 µM [inhibitor, single point] | 
58 | Cc1ccccc1CN1CCc2c(OCC(=O)N3CCCc4ccccc43)cccc2C1=O | inconclusive: 28.2 µM [inhibitor, partial curve, poor fit] | 
59 | CN(C(=O)CSc1nnc(-c2n[nH]c3ccccc23)o1)c1ccccc1 | inconclusive: 39.8 µM [inhibitor, single point] | 
60 | CCc1ccc(OCC(=O)Nc2cccc3nsnc23)cc1 | inconclusive: 25.1 µM [activator, partial curve] | 
61 | Cc1cccn2c(CNCC3OCCc4ccccc43)c(C(=O)N3CCCCC3)nc12 (stereo not given) | inconclusive: 0.141 µM [inhibitor, full curve, poor fit] | 
62 | Oc1[nH]c2ccccc2c1N=NC(=S)NCC1CCCO1 (stereo not given) |  | inactive: 5.21%
63 | COc1ccc(CNC[C@@H](CCCCN(C)Cc2ccc(OC)cc2)N2C[C@H](c3ccccc3)N(CCc3ccc(Cl)c(Cl)c3)C(=O)C2=O)cc1 | inconclusive: 35.5 µM [inhibitor, single point] | 
64 | O=Cc1cn(-c2ccccc2)nc1-c1ccncc1 |  | inactive: 3.56%
65 | O=C(CCN1C(=O)C2C3CCC(C3)C2C1=O)Nc1ccc([N+](=O)[O-])cc1 (stereo not given) | inconclusive: 11.2 µM [activator, partial curve] | 
